The text below walks through data of patent US10695350B2, “Methods of treating and preventing graft versus host disease” (priority 2013, dated 2020).

Structures are written as SMILES.

Assay [1] has as its system Healthy donor Th17 cells. Description: IL17 intracellular cytokine staining of TCR-stimulated Th17 cells. Conditions: 30 minute pretreatment with 1 μM ibrutinib; 12 hours stimulation.
For assay [2], the system named is CD4+CD25hiCD127dim CD49d-FoxP3+ Tregs. Description: in vitro T-cell suppression assay (CFSE division index of CD8+ responder cells). Conditions: Tregs pretreated with 1 μM ibrutinib; 6 days.
Assay [3] concerns B-cell receptor pathway (pERK1/2, pBTK, pPLCγ2). Briefly: Immunoblot of B-cell receptor pathway activation in anti-IgM stimulated B-cells from cGVHD patients. Conditions: 1 μM ibrutinib pretreatment; anti-IgM 45 minutes. (In general: In western blotting, separated proteins are transferred to a membrane and probed.)
Assay [4] relates to patients with steroid-dependent/refractory cGVHD. Conditions: 420 mg daily; planned study.

For `C=CC(=O)N1CCC[C@@H](n2nc(-c3ccc(Oc4ccccc4)cc3)c3c(N)ncnc32)C1` [ibrutinib, (R)-1-(3-(4-amino-3-(4-phenoxyphenyl)-1H-pyrazolo[3,4-d]pyrimidin-1-yl)piperidin-1-yl)prop-2-en-1-one], in assay [1], the “TCR-induced activation of Th17 cells (percentage of IL17 secreting CD4+ T-cells)” value was “limited the TCR-induced activation of Th17 cells”. The “suppressive function of human Tregs” value in assay [2] is “maintained”. Moreover, the “B-cell receptor pathway activation (phospho-specific antibodies)” value in assay [3] is “effective in inhibiting”. For the same molecule, in assay [4], the “expected response at 12 weeks compared with the historical response rate of 30%” value is listed as “will improve response”.
